# The supplement of paper PMC8728848
# Some of the results follow.
# Key:
# Assay in all cases: glycan array binding signal (z-score within array); higher = stronger binding
# Settings in all cases: glycan notation: IUPAC condensed, linker removed
# [1] = biological target: Man(a1-3)[Man(a1-6)]Man(b1-4)GlcNAc(b1-4)[Fuc(a1-6)]GlcNAc
# Method in brief: (§1)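 Arrays were curated from the Consortium for Functional Glycomics database, 3228 in total, and kept only where the protein sequence was available. Binding is expressed as a within-array Z-score. This score was averaged across arrays of the same protein sequence at different concentrations or buffers and across linkers, and negative values can be read as non-binding.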
# Man(a1-6)Man = biological target: Man(a1-6)Man
# Method in brief: as §1
# Man(b1-4)GlcNAc = biological target: Man(b1-4)GlcNAc
# Method in brief: as §1
# MurNAc(b1-4)GlcNAc = biological target: MurNAc(b1-4)GlcNAc
# Method in brief: as §1
# Neu5Ac(a2-3)Gal = biological target: Neu5Ac(a2-3)Gal
# Method in brief: as §1
# [2] = biological target: Neu5Ac(a2-3)Gal(b1-3)GalNAc
# Method in brief: as §1
# [3] = biological target: Neu5Ac(a2-3)Gal(b1-3)GalNAc(b1-3)Gal(a1-4)Gal(b1-4)Glc
# Method in brief: as §1
# [4] = biological target: Neu5Ac(a2-3)Gal(b1-3)GalNAc(b1-4)Gal(b1-4)Glc
# Method in brief: as §1
# [5] = biological target: Neu5Ac(a2-3)Gal(b1-3)GalNAc(b1-4)[Neu5Ac(a2-3)]Gal(b1-4)Glc
# Method in brief: as §1
# [6] = biological target: Neu5Ac(a2-3)Gal(b1-3)GalNAc(b1-4)[Neu5Ac(a2-8)Neu5Ac(a2-3)]Gal(b1-4)Glc
# Method in brief: as §1
# [7] = biological target: Neu5Ac(a2-3)Gal(b1-3)GalNAc6S
# Method in brief: as §1
# [8] = biological target: Neu5Ac(a2-3)Gal(b1-3)GlcNAc
# Method in brief: as §1
# [9] = biological target: Neu5Ac(a2-3)Gal(b1-3)GlcNAc(b1-2)Man
# Method in brief: as §1
# [10] = biological target: Neu5Ac(a2-3)Gal(b1-3)GlcNAc(b1-2)Man(a1-3)[GlcNAc(b1-4)][Neu5Ac(a2-3)Gal(b1-3)GlcNAc(b1-2)Man(a1-6)]Man(b1-4)GlcNAc(b1-4)GlcNAc
# Method in brief: as §1
# [11] = biological target: Neu5Ac(a2-3)Gal(b1-3)GlcNAc(b1-2)Man(a1-3)[Neu5Ac(a2-3)Gal(b1-3)GlcNAc(b1-2)Man(a1-6)]Man(b1-4)GlcNAc(b1-4)GlcNAc
# Method in brief: as §1
# [12] = biological target: Neu5Ac(a2-3)Gal(b1-3)GlcNAc(b1-2)[Neu5Ac(a2-3)Gal(b1-3)GlcNAc(b1-4)]Man(a1-6)[Neu5Ac(a2-3)Gal(b1-3)GlcNAc(b1-2)Man(a1-3)]Man(b1-4)GlcNAc(b1-4)GlcNAc
# Method in brief: as §1
# [13] = biological target: Neu5Ac(a2-3)Gal(b1-3)GlcNAc(b1-3)Gal(b1-3)GlcNAc
# Method in brief: as §1
# [14] = biological target: Neu5Ac(a2-3)Gal(b1-3)GlcNAc(b1-3)Gal(b1-4)GlcNAc
# Method in brief: as §1
# [15] = biological target: Neu5Ac(a2-3)Gal(b1-3)GlcNAc(b1-3)GalNAc
# Method in brief: as §1
# [16] = biological target: Neu5Ac(a2-3)Gal(b1-3)GlcNAc(b1-4)Gal(b1-4)Glc
# Method in brief: as §1
# [17] = biological target: Neu5Ac(a2-3)Gal(b1-3)GlcNAc(b1-6)GalNAc
# Method in brief: as §1
# [18] = biological target: Neu5Ac(a2-3)Gal(b1-3)GlcNAc6S
# Method in brief: as §1
# [19] = biological target: Neu5Ac(a2-3)Gal(b1-3)[Fuc(a1-4)]GlcNAc
# Method in brief: as §1
# [20] = biological target: Neu5Ac(a2-3)Gal(b1-3)[Fuc(a1-4)]GlcNAc(b1-3)Gal(b1-3)[Fuc(a1-4)]GlcNAc
# Method in brief: as §1
# [21] = biological target: Neu5Ac(a2-3)Gal(b1-3)[Fuc(a1-4)]GlcNAc(b1-3)Gal(b1-4)[Fuc(a1-3)]GlcNAc
# Method in brief: as §1
# [22] = biological target: Neu5Ac(a2-3)Gal(b1-3)[GlcNAc(b1-6)]GalNAc
# Method in brief: as §1
# [23] = biological target: Neu5Ac(a2-3)Gal(b1-3)[Neu5Ac(a2-3)Gal(b1-4)]GlcNAc
# Method in brief: as §1
# [24] = biological target: Neu5Ac(a2-3)Gal(b1-3)[Neu5Ac(a2-6)]GalNAc
# Method in brief: as §1
# [25] = biological target: Neu5Ac(a2-3)Gal(b1-3)[Neu5Ac(a2-6)]GlcNAc(b1-3)[Fuc(a1-3)[Gal(b1-4)]GlcNAc(b1-6)]Gal(b1-4)Glc
# Method in brief: as §1
# [26] = biological target: Neu5Ac(a2-3)Gal(b1-3)]Neu5Ac(a2-3)Gal(b1-4)]GlcNAc
# Method in brief: as §1
binder,measurement,setting,value
"Siglec-F (Mus musculus), Q920G3 (protein) MRWAWLLPLLWAGCLATDGYSLSVTGSVTVQEGLCVFVACQVQYPNSKGPVFGYWFREGANIFSGSPVATNDPQRSVLKEAQGRFYLMGKENSHNCSLDIRDAQKIDTGTYFFRLDGSVKYSFQKSMLSVLVIALTEVPNIQVTSTLVSGNSTKLLCSVPWACEQGTPPIFSWMSSALTSLGHRTTLSSELNLTPRPQDNGTNLTCQVNLPGTGVTVERTQQLSVIYAPQKMTIRVSWGDDTGTKVLQSGASLQIQEGESLSLVCMADSNPPAVLSWERPTQKPFQLSTPAELQLPRAELEDQGKYICQAQNSQGAQTASVSLSIRSLLQLLGPSCSFEGQGLHCSCSSRAWPAPSLRWRLGEGVLEGNSSNGSFTVKSSSAGQWANSSLILSMEFSSNHRLSCEAWSDNRVQRATILLVSGPKVSQAGKSETSRGTVLGAIWGAGLMALLAVCLCLIFFTVKVLRKKSALKVAATKGNHLAKNPASTINSASITSSNIALGYPIQGHLNEPGSQTQKEQPPLATVPDTQKDEPELHYASLSFQGPMPPKPQNTEAMKSVYTEIKIHKC",glycan array binding signal (z-score),[1],-0.14
same,glycan array binding signal (z-score),Man(a1-6)Man,-0.121
same,glycan array binding signal (z-score),Man(b1-4)GlcNAc,-0.12
same,glycan array binding signal (z-score),MurNAc(b1-4)GlcNAc,-0.15
same,glycan array binding signal (z-score),Neu5Ac(a2-3)Gal,-0.115
same,glycan array binding signal (z-score),[2],-0.08
same,glycan array binding signal (z-score),[3],-0.112
same,glycan array binding signal (z-score),[4],-0.093
same,glycan array binding signal (z-score),[5],3.76
same,glycan array binding signal (z-score),[6],-0.114
same,glycan array binding signal (z-score),[7],-0.094
same,glycan array binding signal (z-score),[8],-0.056
same,glycan array binding signal (z-score),[9],0.123
same,glycan array binding signal (z-score),[10],-0.144
same,glycan array binding signal (z-score),[11],-0.134
same,glycan array binding signal (z-score),[12],-0.025
same,glycan array binding signal (z-score),[13],-0.109
same,glycan array binding signal (z-score),[14],-0.104
same,glycan array binding signal (z-score),[15],-0.12
same,glycan array binding signal (z-score),[16],-0.179
same,glycan array binding signal (z-score),[17],0.823
same,glycan array binding signal (z-score),[18],-0.104
same,glycan array binding signal (z-score),[19],-0.117
same,glycan array binding signal (z-score),[20],-0.121
same,glycan array binding signal (z-score),[21],-0.066
same,glycan array binding signal (z-score),[22],-0.159
same,glycan array binding signal (z-score),[23],2.46
same,glycan array binding signal (z-score),[24],0.27
same,glycan array binding signal (z-score),[25],-0.102
same,glycan array binding signal (z-score),[26],3.65
